Among the data in the supplement of paper PMC10441789 are antibody binding signal values, retold here.

The other results are listed elsewhere or left out. Antibody binding of pooled human sera (four to six donors per pool; dilution not stated) to peptides of the Trypanosoma cruzi antigen TSSA on microarrays. Quantile-normalised fluorescence in arbitrary units, mean of duplicate arrays; higher = more binding. No active / inactive call. The uninfected pools are read here as the healthy donors of the same country. The strongest signals lie near the top of the scale (about 60,000).

For the assay, the system named is pooled sera of uninfected people, Colombia. Put plainly: antibody binding signal (normalised fluorescence) (arbitrary fluorescence units); higher = stronger serum antibody binding to peptide. Here is the method:
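Microarray of 15-residue peptides over residues 30-55 of Trypanosoma cruzi TSSAII, each with 1 to 10 substitutions at naturally variable positions, probed with one serum pool per country.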
Sequence TDKKPAAGGAPSPSG gave an antibody binding signal of 106.

In turn, KEKKTAAGEAPSPPG yielded an antibody binding signal of 538.

For the sequence TEKKAATGEAPSQSG, the antibody binding signal is 766.

As for GKENKTATGETPSQP, the antibody binding signal was 175.

ENKPAAGGTPSPPGA gave an antibody binding signal of 429.

SGKEKKPATGGTPSQ yielded an antibody binding signal of 111.

In turn, KDNKAAAGGTPSPPG displayed an antibody binding signal of 202.

For the sequence KEKKAATGGAPSPPG, the antibody binding signal was found to be 264.

SGKEKKPATGGTPSP had an antibody binding signal of 197.

As to SGTENKTATGGTPSQ, the antibody binding signal stood at 300.

For GTDKKAATGEAPSQS, the antibody binding signal came out at 423.

Sequence DKKAATGGAPSPSGA came in with an antibody binding signal of 635.

For TEKKTATGGTPSPPG, the antibody binding signal worked out at 1250.

For ENKAATGEAPSPSGA, the antibody binding signal came out at 120.

The sequence DKKPAAGETPSPPGA gave an antibody binding signal of 165.

As for KTAAGEAPSQSGASS, the antibody binding signal was 172.

Turning to PSGKDNKAAAGGAPS, the antibody binding signal was 134.

The sequence KPATGGTPSQPGASS had an antibody binding signal of 193.

With KEKKPAAGEAPSQPG, the antibody binding signal was 84.1.

The sequence KAAAGGAPSPPGASS came in with an antibody binding signal of 123.

In turn, KDNKPATGEAPSQSG yielded an antibody binding signal of 321.

With GTEKKPAAGETPSQS, the antibody binding signal is 566.

For TDKKTAAGETPSPSG, the antibody binding signal was 587.

In turn, PSGTDKKPAAGGTPS yielded an antibody binding signal of 289.

STPPSGKDNKAAAGG yielded an antibody binding signal of 168.

With PSGTDNKPAAGETPS, the antibody binding signal was found to be 542.

Turning to TSSTPPSGTEKKTAT, the antibody binding signal came out at 118.

Regarding GTENKTATGGAPSPS, the antibody binding signal came out at 217.

STPPSGTDKKTAAGG: the antibody binding signal came out at 180.

The sequence PSGTEKKTAAGEAPS showed an antibody binding signal of 1740.

Regarding PSGTDNKAAAGGAPS, the antibody binding signal was determined as 350.

Sequence ENKTAAGGAPSQSGA gave an antibody binding signal of 180.

On to NKPAAGETPSQPGAS, for which the antibody binding signal was determined as 734.

Sequence KENKTAAGEAPSPSG showed an antibody binding signal of 157.

Sequence TDKKTATGETPSQSG registered an antibody binding signal of 127.

The sequence PPSGTDKKPATGGAP yielded an antibody binding signal of 544.

In the case of GKEKKPAAGETPSQS, the antibody binding signal worked out at 177.

In the case of SGKDKKTATGGTPSQ, the antibody binding signal came to 191.

In turn, TDKKAAAGGTPSPSG gave an antibody binding signal of 173.

With GTENKTATGETPSQS, the antibody binding signal was 188.
